The text below walks through data of PubChem BioAssay AID488969 (Vanderbilt High Throughput Screening Facility, 2010).

Whole data set: some 110,000 compounds, median “z-score” near -0.1, cut for the highest 2% near 2. Some of the results follow. Calls of active or inactive are those of the source.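 How the source made its calls: active means z-score in the third read window above 3 or below -3; inactive means the rest.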

The assay concerns the target Metabotropic glutamate receptor 8 (Rattus norvegicus) (UniProt P70579). Briefly: rat mGluR8 modulators via GIRK flux, primary screen, cell-based, thallium flux, HTS (AID 488969). Particulars: HEK293 rat mGluR8, GIRK (G protein-gated inwardly rectifying potassium channel) thallium flux, FluoZin2; at 10 µM; stronger effect = higher value; submaximal glutamate (EC20) added with thallium.
Sequence of UniProt P70579 (P70579 whole entry, looked up): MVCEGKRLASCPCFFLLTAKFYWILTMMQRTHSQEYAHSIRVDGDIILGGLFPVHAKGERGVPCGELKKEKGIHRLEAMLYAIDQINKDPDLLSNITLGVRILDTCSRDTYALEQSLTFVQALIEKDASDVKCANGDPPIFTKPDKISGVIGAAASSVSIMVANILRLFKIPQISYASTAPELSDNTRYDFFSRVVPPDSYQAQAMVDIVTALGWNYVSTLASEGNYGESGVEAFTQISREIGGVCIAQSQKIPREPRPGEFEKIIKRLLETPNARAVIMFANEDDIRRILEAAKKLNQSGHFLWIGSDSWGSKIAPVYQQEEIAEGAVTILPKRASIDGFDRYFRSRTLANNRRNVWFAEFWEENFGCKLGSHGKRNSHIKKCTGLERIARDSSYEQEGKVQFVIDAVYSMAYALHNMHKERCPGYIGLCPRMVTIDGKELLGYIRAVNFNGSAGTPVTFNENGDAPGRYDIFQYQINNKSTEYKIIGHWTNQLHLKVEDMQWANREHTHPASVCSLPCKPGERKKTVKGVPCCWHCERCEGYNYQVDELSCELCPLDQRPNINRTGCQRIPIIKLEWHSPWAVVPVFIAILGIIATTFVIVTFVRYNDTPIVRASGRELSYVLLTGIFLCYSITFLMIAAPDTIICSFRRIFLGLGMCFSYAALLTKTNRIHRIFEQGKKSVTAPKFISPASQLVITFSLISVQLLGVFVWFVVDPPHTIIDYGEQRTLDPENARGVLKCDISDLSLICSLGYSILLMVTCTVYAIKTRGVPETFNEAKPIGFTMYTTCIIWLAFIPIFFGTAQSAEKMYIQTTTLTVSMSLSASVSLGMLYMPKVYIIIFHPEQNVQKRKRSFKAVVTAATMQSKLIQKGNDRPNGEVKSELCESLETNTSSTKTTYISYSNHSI
On to `COc1ccc2[nH]c3c(N4CCN(Cc5ccc6c(c5)OCO6)CC4)ncnc3c2c1`, for which the z-score is -0.212. `Cn1c2c(c(=O)n(C)c1=O)C1c3cc(Cl)ccc3OCC1CO2` (centres undefined) gave a z-score of 0.315. The value for `CCc1ccc2c(c1)C(C)=CC(C)(C)N2` was -0.05. Then `Cc1ccc(S(=O)(=O)NCc2cccnc2)s1`, with -0.152; and `CC(C)(C)C(=O)Nc1ccc(C(=O)N/N=C/c2ccccc2OC(=O)c2ccc(Cl)cc2Cl)cc1`, with -0.246; and `CCN1CCN(C(c2cccs2)C(C)NC(=O)c2c(F)cccc2F)CC1` (centres undefined), with 0.594. As for `O=C(/C=C/c1ccc(Cl)cc1Cl)NCc1ccco1`, the z-score was -0.158. The value for `CC(C)OCCCNCc1cccs1` was 0.695; that for `CCOC(=O)C(NC(=O)Nc1ccccc1)(OCC)C(F)(F)F` (centres undefined) was -0.207; that for `COc1cccc(NC(=O)c2ccc(NC(C)=O)cc2)c1` was -0.0341. The value for `Cc1ccc(CSC2=Nc3sccc3C3=NC(=O)CN23)cc1` was -0.000655; that for `COc1cc(-c2nc(-c3ccc4c(c3)-c3ccccc3S4(=O)=O)c(-c3ccccc3)[nH]2)cc(OC)c1O` was 0.525; that for `COc1cc(/C=C2/C(=O)NN(c3cccc(F)c3)C2=O)ccc1OC(=O)c1ccco1` was -0.208.

With `O=C1CCC(C(=O)N(c2ccccc2)C2(C(=O)NC3CCCCC3)CCCCC2)N1` (centres undefined), the z-score amounted to 0.172. Then `COc1ccc(C(C#N)N2CCOCC2)cc1` (centres undefined), with -0.0842. `Cc1ccc(CSc2nc3ccccc3c(=O)n2CCCC(=O)NCc2ccco2)cc1` came in with a z-score of -0.176.

`Fc1ccccc1N1CCN(Cc2nc(-c3ccc(Cl)cc3Cl)no2)CC1` yielded a z-score of -0.127. Then `CCCCN(CC)Cc1c(C)[nH]c2ccccc2c1=O`, with 0.464; and `CCOC(=O)CC(=O)CSc1nc(-c2ccccc2)cc(-c2ccccc2)c1C#N`, with -0.0278.

`CCCOc1ccc2c(C)c(CC(=O)OC)c(=O)oc2c1` yielded a z-score of 0.149. In the case of `O=C(Nc1nc(-c2ccccc2)cs1)c1ccc2c(=O)n3c(nc2c1)CCCCC3`, the z-score was -0.159.

For the compound `O=C(CN1C(=O)C2C3C=CC(C3)C2C1=O)N1CC=C(c2ccccc2)CC1` (centres undefined), the z-score is -0.292. The value for `CCNC(=O)CC1SC(=Nc2ccc(C)cc2)N(CC)C1=O` (centres undefined) was -0.996; that for `CS(=O)(=O)N(Cc1ccco1)CC(O)Cn1cc(C=O)c2ccccc21` (centres undefined) was -0.256; that for `O=C1CCCN1c1ccc(CNS(=O)(=O)c2ccc(F)cc2)cc1` was 0.357. The compound `CCn1nc(-c2ccccc2)c2nc3ccccc3nc21` displayed a z-score of -0.0247. Then `Cc1cc(NCCCN2CCOCC2)n2nc(C)c(-c3ccccc3)c2n1`, with -0.314; and `C=CCn1c(SCC(=O)O)nnc1-c1ccc(C(C)(C)C)cc1`, with -0.337.

As to `C#CC(C)(CC)NC(=O)c1cc(OC)c(OC)c(OC)c1` (centres undefined), the z-score turned out to be 0.11. Then `CNC(=O)CN(c1ccc(OC)cc1)S(=O)(=O)c1ccc(F)cc1`, with -0.263; and `O=C(Oc1c(-c2ccccc2)oc2ccccc2c1=O)c1ccccc1`, with 0.662; and `COc1ccc(S(=O)(=O)N(C)CC(=O)NCc2cccnc2)cc1C`, with 1.4. For the compound `S=C(Nc1ccccc1Cl)NC1CCN(Cc2ccccc2)CC1`, the z-score is -0.612. The value for `CCCCn1c(=O)cc(O)c2ccccc21` was -1.3; that for `Cc1ccccc1OCC(=O)N/N=C/c1cccn1C` was 2.42.

For the compound `O=C(CCCCCN1C(=O)c2ccccc2C1=O)Nc1nccs1`, the z-score was found to be 1.12. As for `O=C(c1cc(-c2ccco2)on1)N1CCOCC1`, the z-score was found to be 0.971. The value for `O=S(=O)(NCC1CCCO1)c1ccc(Br)s1` (centres undefined) was -0.145.

`CC(NC(=O)Cn1nc(C(=O)O)c2ccccc2c1=O)c1ccccc1` (centres undefined): the z-score was -0.245. With `Cc1nnc2sc(-c3ccc(NC(=O)c4ccc(-c5ccc(Cl)cc5Cl)o4)cc3)nn12`, the z-score was -0.439. Turning to `CCOC(=O)Cc1csc(/N=C/c2c(O)n(-c3ccc(C)cc3C)c(=O)c3ccccc23)n1`, the z-score was -0.0586. Turning to `CC(C)C(=O)NCCc1nc2ccccc2n1CCCOc1ccc(Cl)cc1`, the z-score is -0.512. Then `CC(C)CN(CC(C)C)C(=O)CS(=O)(=O)Cc1ccccc1`, with 0.0475; and `COc1cc(Br)cc2cc(C(=O)N3CCN(c4ccccn4)CC3)c(=O)oc12`, with -0.0926. Then `COCC(=O)Nc1sc2c(c1C(=O)OC)C(C(=O)OC)CC2` (centres undefined), with -0.174; and `O=c1[nH]c(CN2CCN(c3ccccc3)CC2)nc2ccccc12`, with 0.214; and `O=C(Nn1c(C2CCCCC2)nc2ccccc2c1=O)c1ccc(Cl)c([N+](=O)[O-])c1`, with -0.501. The value for `CC1CCN(S(=O)(=O)c2ccc3ccccc3c2)CC1` was -0.637; that for `CCOC(=O)c1[nH]c2ccc(OC)cc2c1NC(=S)N1CCN(c2ccccc2)CC1` was -0.482. As for `C=CCn1c(SCc2ccc(C(=O)Nc3nccs3)cc2)nnc1-c1ccc(C)c(Cl)c1`, the z-score is -0.311. The value for `N#Cc1c(NC(=O)C2CC=CCC2C(=O)O)sc2c1CCCCCC2` (centres undefined) was 0.0265; that for `COc1ccc(NC(=O)C(C)N(c2ccc(C)cc2)S(C)(=O)=O)cc1` (centres undefined) was 0.0624. The value for `CC(=O)Oc1ccc(-c2csnn2)cc1` was -0.443; that for `CCOC(=O)N1CCC(NC(=O)CCC(=O)N2CCOc3ccccc32)CC1` was -0.0937; that for `CCOc1ccc(-c2cn(S(=O)(=O)c3cccc4nsnc34)nc2N)cc1` was -0.465. The value for `N#CCSc1nnc(-c2ccccc2O)n1CCc1ccccc1` was -0.139; that for `C#CCOC(=O)c1ccccc1C(=O)O` was 0.0802; that for `COc1ccc(C)cc1NC(=O)C(OC(=O)c1cccc(S(=O)(=O)N(C)c2ccccc2)c1)c1ccccc1` (centres undefined) was 0.282. `Cc1ccc(CSC2=CS(=O)(=O)c3ccccc3N2)cc1` registered a z-score of 0.0364. For the compound `Cc1ccc(NCCC(=O)c2cccc([N+](=O)[O-])c2)cc1`, the z-score was -0.234.

Take `C=CCSC1=Nc2sccc2C2=NC(=O)CN12`: the z-score was -0.0222. The value for `O=C(NCc1cccs1)c1ccc(Cl)s1` was 0.24; that for `Cc1ccccc1NC(=S)NCc1ccccc1` was -0.16; that for `O=C(CS(=O)(=O)Cc1ccccc1)Nc1nc2ccccc2s1` was 0.0746.

Compound `O=C(Nc1nnc(SCc2ccccn2)s1)C1CC(=O)N(c2ccccc2)C1` (centres undefined) had a z-score of 1.19.

Consider `CCN(C(=O)c1cc2cc(OC)ccc2oc1=O)c1cccc(C)c1`, for which the z-score is -0.38.

The compound `COc1cc(CCN2C(=O)c3cccc4cccc(c34)C2=O)c(S(=O)(=O)N2CCC(C)CC2)cc1OC` gave a z-score of -2.51. The value for `COC(=O)c1cc(Br)c(=O)n(-c2ccccc2F)c1` was -0.00368. Then `O=C(Cc1ccccc1)NCC(=O)N1CCCCCC1`, with -0.585; and `COc1ccc(/C=N/NC(=O)CCc2c(C)n[nH]c2C)cc1O`, with -0.508; and `Cc1ccc(S(=O)(=O)NCC(=O)N2CCOCC2)cc1`, with -0.157. Then `CCOC(=O)N1CCC(Nc2nc(OC)nc(OC)n2)CC1`, with -0.282; and `Cc1cc(NC(=O)CN2CCN(S(=O)(=O)c3ccc4ccccc4c3)CC2)no1`, with 0.162.

Regarding `CC(C)(C)C1=C[C@@H](CO)C[C@@H](CO)C1`, the z-score was determined as 0.666. The value for `COc1cccc(C2N(c3cccc(Cl)c3)C(=O)C3CCCN32)c1OC` (centres undefined) was 0.635. The value for `CCc1c(C)nc2nc(NC(C)=O)[nH]n2c1=O` was -0.11; that for `O=S(=O)(/N=C/c1c(O)ccc2ccccc12)c1cccs1` was -0.194; that for `CCNc1nc(Sc2ccc(C)cc2)cc(C(F)(F)F)n1` was -0.206.

As for `c1cc(C(c2nnnn2C2CCCC2)N2CCOCC2)ccn1` (centres undefined), the z-score came to 0.629.

Consider `O=C1CC(c2ccccc2)CC(O)=C1C=NC1CCCCC1` (centres undefined), for which the z-score was -0.0397. The value for `Cc1nn(C(C)CC(=O)O)c(C)c1C` (centres undefined) was -0.0477; that for `NC(=O)C(c1ccccc1)c1ncc(C(F)(F)F)cc1Cl` (centres undefined) was 0.0182. Then `COc1cc(/C=C/C(=O)OCC(=O)NCc2cccs2)ccc1OCC#N`, with -0.104; and `CCn1c(=O)cc(OCC(=O)NCc2cccnc2)c2ccccc21`, with -0.465; and `COC(=O)c1ccc(NC(=O)CCS(=O)(=O)c2ccc(Br)s2)cc1`, with 0.0553. Then `COc1ccc(CCNC(=O)COC(=O)c2cnc(C)cn2)cc1`, with -0.416; and `O=C(CCN1C(=O)c2ccccc2S1(=O)=O)Nc1ccc2c(c1)OCCO2`, with 0.367. In turn, `CCc1noc(N)c1C(=O)Nc1ccc(F)c(Cl)c1` returned a z-score of 0.943. Then `O=C(C1CCC(N2C(=O)C3CC=CCC3C2=O)CC1)N1CCCCC1` (centres undefined), with -0.555. The compound `O=C(Nc1ccc2c(c1)OCO2)c1ccc(Br)o1` registered a z-score of 0.0351. In turn, `CCOC(=O)Cn1cnc2c(nnn2-c2ccc(C)cc2)c1=O` came in with a z-score of -0.131. With `CN=C1c2cc3cc(OC)ccc3n2CCN1C`, the z-score was 0.371. The value for `CCC(C(=O)NC(C)(C)C)N(C(=O)Cn1nnc(-c2cccs2)n1)c1cnc2ccccc2c1` (centres undefined) was -0.449. The value for `CC(=O)N1CCN(c2ccccc2NC(=O)COc2ccc(Cl)cc2Cl)CC1` was -0.0464; that for `COc1ccccc1C1CC(c2ccc(Cl)cc2Cl)Nc2nc(N)nn21` (centres undefined) was 1.11. The value for `CCCCCCNc1nc(NCc2ccco2)nc(OCC)n1` was -1.43; that for `COc1ccccc1C1N(c2ccc(F)cc2)C(=O)C2CCCN21` (centres undefined) was 0.0807. Compound `O=C(NCCCN1CCCC1=O)NC1CCCCC1` returned a z-score of 0.057. `CCCCn1cnc2c([nH]c3ccccc32)c1=O`: the z-score worked out at 0.099. The value for `Cc1cc(NC(=O)C2CCCN(S(=O)(=O)c3cnc[nH]3)C2)ccc1Br` (centres undefined) was 0.143. The value for `C=CCOc1ccc(CNn2cn[nH]c2=S)cc1OC` was 1.29; that for `CCc1sc(NC(=O)CN2CCOCC2)nc1-c1ccccc1` was active: -4.07. The value for `O=C(CSc1nc2ccccc2c(=O)n1NC(=O)Cc1ccccc1)NCCc1ccccc1` was -0.104. `C/C(=N\Nc1ccc([N+](=O)[O-])cc1)c1ccco1` registered a z-score of -0.373. The value for `COc1cc(NC(=O)c2cc(C3CC3)on2)c(OC)cc1Cl` was 1.04; that for `COCC(=O)N(Cc1ccc(OC)cc1)Cc1nc2ccccc2c(=O)[nH]1` was -0.418. Then `CCN(CC)CCOc1cc2c(nn1)Oc1ccccc1N2C`, with -0.269; and `COc1cc(NC(=O)CN2C(=O)c3ccccc3C2=O)c(C(=O)O)cc1OC`, with -1.17; and `Cc1ccc(C)c(N2CCN(Cc3nnnn3C3CCCCC3)CC2)c1`, with 0.591. Then `C=CCn1c(SCc2ccccc2C#N)nnc1-c1cc(Br)ccc1O`, with -0.764; and `Cc1ccc(-n2c(=S)[nH]c3sc4c(c3c2=O)CCc2ccccc2-4)cc1`, with 2.33; and `O=C(NCCOC(=O)C1COc2ccccc2O1)C1COc2ccccc2O1` (centres undefined), with -0.735. `CCOC(=O)N1CCN(S(=O)(=O)c2ccc(OCC(=O)OC)cc2)CC1` registered a z-score of 0.0316. The value for `O=C(Nc1ccccc1)N1CCC(c2nc(-c3ccc(S(=O)(=O)N4CCOCC4)cc3)no2)CC1` was -0.088.
